PubChem BioAssay AID2546 (National Center for Advancing Translational Sciences (NCATS), 2010)
Out of some 310,000 compounds screened, about 11,000 (3.5%) were called active. The inconclusive results got no clear call from the source; some entries with a clear call stand among them for comparison. Calls come from the whole dose curve; as a rule, active = well fitted inhibition curve with a large enough effect; inconclusive = small, poorly fitted or top-dose-only effect, or effect the other way; inactive = flat fitted curve, though single readings scatter. No potency is given beside an inconclusive call; the fits are too rough.

test: VP16 counterscreen qHTS for inhibitors of ROR gamma transcriptional activity; settings: Drosophila S2 Gal4-VP16 UAS-luciferase, luminescence, 20 h; series mostly up to 53.6 µM;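 note: Gal4-VP16 expression switched on by copper sulfate through the metallothionein promoter; nearly all actives have a fitted effect of over 50% in size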
Potency is the fitted concentration of half-maximal effect; tags give direction and shape of the fitted curve.

Row | SMILES | Potency
1 | O=C1CC(N2CCCN(C3CC(=O)N(c4ccc(F)cc4)C3=O)CC2)C(=O)N1c1ccc(F)cc1 (centres undefined) | inconclusive [inhibitor, single point]
2 | CCOC(=O)c1c(C)[nH]c(C(=O)N/N=C\c2ccccc2O)c1C | active: 1.41 µM
3 | CCN(CC(=O)Nc1c(F)cccc1F)C(=O)C1CC(=O)N(c2ccccc2OC)C1 (centres undefined) | inconclusive [inhibitor, single point]
4 | Cc1ccc(C)c(NS(=O)(=O)c2ccc(NC(=O)CSc3ccc(Cl)cc3)cc2)c1 | inactive
5 | Cc1ccccc1C(=O)N1CCN(c2ccc(NC(=O)c3ccc([N+](=O)[O-])o3)cc2)CC1 | inconclusive [inhibitor, single point]
6 | Cc1ccc(S(=O)(=O)NCCNC(=O)c2ccc(C)nc2)cc1 | inactive
7 | CC(C)CC(COCc1ccc(Cl)cc1)N1CCN(C(=O)c2ccc(Cl)cc2Cl)CCC1=O (centres undefined) | inconclusive [inhibitor, partial curve]
8 | COc1ccc(/C=N/NC(=O)CCCOc2ccc(Cl)cc2Cl)cc1[N+](=O)[O-] | inconclusive [inhibitor, partial curve]
9 | O=C(OCn1ncc(Cl)c(Cl)c1=O)c1cccc(C(F)(F)F)c1 | inactive
10 | Cc1ccc(O)c(NC(=S)NC(=O)c2ccccc2Cl)c1 | active: 12.6 µM
11 | Cc1ccc(-c2nc3ncccn3c2Nc2ccc3c(c2)OCO3)o1 | inactive
12 | S=C(Nc1cccc(Cl)c1Cl)NC1CCN(Cc2ccccc2)CC1 | inconclusive [inhibitor, single point]
13 | S=c1[nH]nc(-c2ccc3ccccc3n2)n1-c1ccc2ncccc2c1 | inconclusive [inhibitor, single point]
14 | O=c1c2ccccc2[nH]c(=S)n1CCN1CCC(=C(c2ccc(F)cc2)c2ccc(F)cc2)CC1 | inconclusive [inhibitor, single point]
15 | O=C(/C=C/c1ccccc1)Oc1ccccc1C(=S)N1CCOCC1 | inconclusive [activator, partial curve]
16 | Cc1cccc(C(=O)Nc2nnc(COc3ccccc3)s2)c1 | inactive
17 | Cc1ccc(Cn2ccc(=O)c(OCc3c(Cl)cccc3Cl)c2C)cc1 | inconclusive [inhibitor, single point]
18 | CC1CCCCC1NC(=O)c1cncc(Br)c1 (centres undefined) | inactive
19 | C/C(=N\OCC(=O)N/N=C/c1ccc(C)cc1O)c1cccs1 | active: 2.82 µM
20 | CC(=O)NN1C(=O)c2ccccc2NC1c1ccccc1O (centres undefined) | inconclusive [inhibitor, single point]
21 | CSCCC(N=Cc1c(O)n(-c2ccc(F)cc2)c(=O)[nH]c1=O)C(=O)O (centres undefined) | inconclusive [inhibitor, single point]
22 | COc1cccc(Cn2c(=O)c3[nH]cnc3n(-c3ccccc3C)c2=O)c1 | inactive
23 | O=C1Nc2ccc(Br)cc2/C1=C/C1CC=CCC1 (centres undefined) | inconclusive [inhibitor, single point]
24 | CC(=O)N1CCc2cc(S(=O)(=O)NC3CCCc4ccccc43)ccc21 (centres undefined) | active: 20 µM
25 | CSc1ncc(C(=O)Nc2ccccc2)cn1 | inconclusive [activator, single point]

Row | SMILES | Potency
26 | Cc1ccc(/C([O-])=C(/C(=S)NCc2ccccc2)[n+]2cccc(CO)c2)cc1[N+](=O)[O-] | inactive
27 | Cc1c(Cl)cccc1NC(=S)NCc1ccc(F)cc1 | active: 5.01 µM
28 | CCOC(=O)c1sc(=S)n(C)c1NC(=O)c1ccc(C(C)(C)C)cc1 | inactive
29 | Cc1ccc(C(=O)NC(=S)Nc2ccc(Oc3ccc(Cl)cc3)cc2)cc1 | inconclusive [inhibitor, single point]
30 | CC(C)c1ccccc1NC(=S)N1CCN(Cc2ccc3c(c2)OCO3)CC1 | inconclusive [inhibitor, single point]
31 | Cc1cc(C)n(/N=C/c2ccc(C(C)C)cc2)c(=O)c1C#N | inconclusive [inhibitor, single point]
32 | CN(CCc1cn[nH]c1)Cc1nc(C(c2ccccc2)c2ccccc2)no1 | inconclusive [inhibitor, single point]
33 | On1onc2c3cc(-c4ccccc4)nc3ccc21 | active: 10 µM
34 | O=C(CCN1CCC(c2ccccc2)C1)c1ccccc1 (centres undefined) | inactive
35 | Oc1cccc(/C=N\Nc2nncc(-c3ccccc3)n2)c1 | inconclusive [inhibitor, partial curve, poor fit]
36 | CCCc1nc2ccccc2n1CCOC | inconclusive [inhibitor, single point]
37 | CN1C(=O)/C(=C/c2cc3c(cc2Br)OCO3)NC1=S | inconclusive [inhibitor, partial curve]
38 | Cc1n[nH]c(=S)n1/N=C/c1ccccc1 | inconclusive [inhibitor, single point]
39 | Cc1ccc(NC(=O)CSc2nnc(-c3cnccn3)n2Cc2ccco2)cc1 | inconclusive [inhibitor, single point]
40 | CC(C)(C)c1ccc(/C=C2\Oc3cc(O)ccc3C2=O)cc1 | inconclusive [inhibitor, single point]
41 | Cn1cccc1C(=S)N=P(C1CCCCC1)(N1CCOCC1)N1CCOCC1 | inactive
42 | CC(C)Cc1ccc(C(C)C(=O)Nc2ccc(O)cc2)cc1 (centres undefined) | active: 17.8 µM
43 | O=C(NCCc1c[nH]c2ccccc12)C1CCC(Cn2c(=S)[nH]c3ccccc3c2=O)CC1 (centres undefined) | active: 12.6 µM
44 | CCc1nnc(NC(=O)c2cc(-c3ccccn3)nc3ccc(Br)cc23)s1 | inconclusive [inhibitor, single point]
45 | COCCCn1c(=S)[nH]c2ccc(N3CCOCC3)cc2c1=O | inconclusive [inhibitor, single point]
46 | CCOC(=O)c1c(N/N=C/c2cccnc2)n[nH]c1C | inconclusive [activator, partial curve]
47 | O=c1c2c(-c3cccs3)csc2ncn1-c1ccc(Br)cc1 | inactive
48 | CC(=O)Nc1ccc(NC(=O)c2nc(S(=O)(=O)Cc3ccccc3)ncc2Cl)cc1 | active: 0.355 µM
49 | COc1ccc(CC(=O)Nc2cc(C)ccn2)cc1 | inconclusive [inhibitor, single point]
50 | Cc1[nH][nH]c(=O)c1C(c1ccc(-c2cccc(Cl)c2)o1)c1c(C)[nH][nH]c1=O | inactive

Row | SMILES | Potency
51 | CC(C)Cc1ccc([C@@H](C)C(=O)NS(C)(=O)=O)cc1 | inactive
52 | COc1ccccc1C1CCN(C(=O)c2cnn(-c3ccccc3)c2C)CC1 | inconclusive [inhibitor, single point]
53 | Cc1ccc(Nc2ccc(C(=O)O)cc2N)cc1 | inconclusive [inhibitor, partial curve]
54 | NC(=O)[C@@H]1CCCN1C(=O)C(Cc1cnc[nH]1)NC(=O)C1CCC(=O)N1 (some centres undefined) | inactive
55 | CC(=O)Oc1c(C)cc(Cl)cc1C(=O)Nc1ccc([N+](=O)[O-])cc1Cl | active: 1 µM
56 | Cc1ccsc1C(=O)Nc1nc2ccccc2[nH]1 | active: 7.08 µM
57 | C=CC(C)N1C(=O)S/C(=C\c2ccc(N3CCOCC3)cc2C)C1=O (centres undefined) | inconclusive [inhibitor, single point]
58 | c1ccc2c(Nc3nc(N4CCOCC4)c4ccccc4n3)cccc2c1 | inconclusive [inhibitor, single point]
59 | Cc1nnc(N/N=C/c2cc(C)n(-c3ccc(F)cc3)c2C)n1N | inconclusive [inhibitor, single point]
60 | Cc1ccc2nc(Nc3nc(C)cc(-c4ccccc4)n3)[nH]c(=O)c2c1 | inactive
61 | COc1ccc(O)c(C(=O)c2coc(=N)c(C(=O)Nc3ccc(SC(F)F)cc3)c2)c1 | inconclusive [inhibitor, single point]
62 | Cc1cc(C)n(-c2nc(SCCN(C)C)c3c4c(sc3n2)CCCC4)n1 | active: 7.94 µM
63 | Cc1nn(-c2cccc(C(F)(F)F)c2)c(=O)c2ccccc12 | inactive
64 | Cc1ccc(-c2onc3ccc(Cl)cc23)cc1 | inactive
65 | CCOC(=O)N1CCN(CC(=O)Nc2ccc(Oc3ccccc3)cc2)CC1 | inactive
66 | CCn1c(CNC(=O)c2cc(OC)c(OC)c(OC)c2)cc2cc(C)ccc21 | inconclusive [inhibitor, single point]
67 | C=CCc1ccc(OCC(O)CN2CCN(Cc3ccc(Cl)cc3)CC2)c(OC)c1 (centres undefined) | inconclusive [inhibitor, single point]
68 | COC(=O)[C@@H]1CC[C@H](C)[C@@H](c2ccc(C)cc2)N1C(=O)c1ccc(/C=N/O[C@@H](C)c2cn([C@H](CO)Cc3ccccc3)nn2)cc1 | inactive
69 | COc1nn(-c2ccccc2)c(=O)c(Cl)c1Cl | active: 11.2 µM
70 | CNc1nc(NN)nc(Nc2ccccc2)n1 | inconclusive [inhibitor, single point]
71 | Cc1ccc(C2=NN(C(=O)c3ccco3)C(O)(C(F)(F)F)C2)cc1 (centres undefined) | inconclusive [inhibitor, single point]
72 | Cc1cccc(-n2cc[nH]c2=S)c1C | inconclusive [inhibitor, single point]
73 | CC(C)CNC(=O)COC(=O)c1c2c(nc3ccccc13)/C(=C/c1cccs1)CC2 | inconclusive [inhibitor, full curve]
74 | O=C(NNC(=S)NC(=O)c1cccc([N+](=O)[O-])c1)c1ccc(Br)cc1 | inconclusive [inhibitor, single point]
